Results from the supplement of paper PMC11417369.
± gives the standard deviation of the averaged measurements. The list shows a part of the results.

Each sequence was assayed on PfAP2-G AP2 domain (GST-tagged) (assay: gcPBM binding intensity (ln(normalized median fluorescence intensity)); higher = stronger DNA binding).
Outline: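 Plasmodium falciparum DNA-binding domains carrying a GST tag were expressed in E. coli and applied for 1 h, at about 25 μg on average, to an Agilent 4 × 180k array. The array held primer-extended double-stranded 36-bp intergenic genomic probes together with negative controls, and binding took place in 1× PBS with 1% milk, 0.2 mg/ml BSA, 0.5% salmon testes DNA and 0.03% Triton X-100. An Alexa488 anti-GST antibody detected bound protein, and the array was scanned at 488 nm. Binding intensity is taken as the highest Masliner-normalised natural-log median intensity across replicate spots of either probe orientation.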

Row | Sequence | gcPBM binding intensity (ln)
1 | ATATATATAGAAATATGTACGAAAAAAATATCACAT [XGTACX_site746] | 10.9 ± 0.59
2 | TATTTATTTTATATATGTACATAATATATTCTTATA [XGTACX_site1619] | 11.2 ± 0.69
3 | GCTCAATTTTTGGGTACACACAAATGTATAAGAATA [CACACA_site7178] | 11.5 ± 0.91
4 | TTTTTCTAATTATGCACACATATCAAAATATTCAAT [CACACA_site2749] | 10.2 ± 0.25
5 | TGTTCTATGGTTTGTAGTACTTTAATAAATATAAAT [XGTACX_site7823] | 11.4 ± 0.92
6 | AAAATCAAAAAAACAAGTACAAATGTGGACTTTTTT [XGTACX_site5363] | 11.5 ± 0.86
7 | AATAAGCTCACGTGTCGTACATTTTTTAAAACAACC [XGTACX_site4707] | 11.3 ± 0.74
8 | TCAAAAAAAAAAAAAAAAAAAAAAAAAAAAAAAAAA [CACACA_negctrl_site1753] | 9.71 ± 0.071
9 | ATATAAATGAATATATGTACATATATATATATATAT [XGTACX_site6361] | 11.2 ± 0.52
10 | TTTTTTTTTTTTTGGTGTACCATAGGTAAAATGATT [XGTACX_site8020] | 11.1 ± 0.84
11 | ATTTATGGAAAAAGAACACACAATCAAACAAAAATA [CACACA_site3707] | 10.3 ± 0.27
12 | ATGCTATAGGATCTTACACACATTTTTGTAAAAAAA [CACACA_site1868] | 10.02 ± 0.071
13 | TGACCTGTTCAGGTAACACACATATAAACCCATACA [CACACA_site31] | 10.4 ± 0.25
14 | CATTTACCCTTATTAACACACAAAATATAATACGCT [CACACA_site2565] | 10.2 ± 0.23
15 | CAAAATATAGATGACACACACAAAAAAAGTATATTA [CACACA_site6848] | 10.14 ± 0.042
16 | AGATAAAAAAAGTACACACACACATATATATATATA [CACACA_site3072] | 11.6 ± 0.93
17 | AAGCTTCCTTAATATACACACATATCTGAGTATATT [CACACA_site5939] | 9.965 ± 0.007
18 | AAAAAAAAAAAAAAAAAAAAATTTCAATTATATTGA [GTGCAC_negctrl_site642] | 10.8 ± 0.52
19 | TTTTTTTTTGCCTACTGTACTATTTTTGAGCTCACC [XGTACX_site7967] | 11.5 ± 0.95
20 | ATAGAAAGTGACAATTGTACATACATATTATATATA [XGTACX_site4390] | 10.9 ± 0.43
21 | TTCTTGGAATACAAGTGTACTTTATTATTATTATTA [XGTACX_site5997] | 11.3 ± 0.88
22 | AAAATTATAATATATACACACATATATATATTAAAT [CACACA_site473] | 9.91 ± 0.18

Row | Sequence | gcPBM binding intensity (ln)
23 | TATTGTTTTTTTGATTTTTTTTTTTTTTTTAATGAA [CACACA_negctrl_site824] | 9.465 ± 0.064
24 | ACCAAATCATATATAGCACACAAATTCTTTATTATT [CACACA_site8911] | 9.94 ± 0.13
25 | AATATTTTCTGTAATACTTCTTTTCAATTTATTTCG [CACACA_negctrl_site1390] | 10.3 ± 0.11
26 | AATATCAATGATGTTACATGCAAGAGAATCCACAAA [TGCATGCA_site678] | 10.12 ± 0.021
27 | TATATTAAACATATATGTACATATTTTTTCTGAACA [XGTACX_site5390] | 11.3 ± 0.78
28 | ACGTAAAATTATTATTGTACATGTAAATAATTTGGA [XGTACX_site8154] | 11.1 ± 0.32
29 | ATTTACATTCACTTATGTACTTATATAATTTTATTT [XGTACX_site8150] | 11.3 ± 0.8
30 | TAACTCCACAAATAATGTACATATATCACTATATTT [XGTACX_site4911] | 10.8 ± 0.46
31 | AATGTATAATTATAATGTACAAATAATATATAATAT [XGTACX_site5407] | 10.9 ± 0.4
32 | TATATAATATATATTTTATATTTGTAATAATTTTTT [GTGCAC_negctrl_site497] | 9.52 ± 0.057
33 | TACATATGAAAATACACACATACATACATATATATA [CACACA_site1673] | 9.94 ± 0.11
34 | TACCCACGTATATATATACACACTAATATACACCCA [CACACA_site9381] | 10.2 ± 0.2
35 | TATACGAAATTGTGCACACATATATTTATGTATGTA [CACACA_site1509] | 10.4 ± 0.29
36 | AATACATAATAACATGTACACACATTCTTCTATAAA [CACACA_site9344] | 11.3 ± 0.86
37 | AAAAAAAACGAACACACACACATACAAAATCTATAT [CACACA_site6795] | 10.03 ± 0.014
38 | TTAAAAGAATATAATGCACACATTATTTTATTTTAT [CACACA_site3772] | 9.73 ± 0.13
39 | GTATGAGTCGTAGAGTGTACTCTGGAGAAAACTACA [XGTACX_site4942] | 11.4 ± 0.78
40 | TTTTTTCTTAGTTATACATGCAAAATAAATAAATAA [TGCATGCA_site410] | 9.96 ± 0.28
41 | TATTTTTTCTTAAACACACACATATATATATAGAAT [CACACA_site2836] | 10.1 ± 0.19
42 | TTAAATGAAAAAATATGTACGTATAATAAGAAATAT [XGTACX_site6619] | 11.6 ± 0.87
43 | TGCATACATAAATGTATATATTAATATATATCATAT [GTGCAC_negctrl_site252] | 9.62 ± 0.12
44 | ATTTATATATAATTTTGTACGAAAAAAATAAGGTAT [XGTACX_site3578] | 11 ± 0.67

Row | Sequence | gcPBM binding intensity (ln)
45 | TATATATTTATTAAATGTACATAACAAAAATGGTAT [XGTACX_site3577] | 11.1 ± 0.52
46 | TTTTTTTTTTTGTTCACACATATACTTTTATTTTGG [CACACA_site4250] | 10.2 ± 0.23
47 | AATGCTATCATTAATGCACACATTTAAACTTAATAT [CACACA_site5878] | 10.03 ± 0.035
48 | TATAACGCTTGCAGCTGTACAAAAATAATCAAACTG [XGTACX_site2464] | 10.7 ± 0.34
49 | AAAAGATTTATACATACACACATATTATAGTCACAT [CACACA_site7701] | 10.02 ± 0.049
50 | TGTATACGCATATGTACACACATATATATGTATATG [CACACA_site3087] | 11.4 ± 0.9
51 | GTGTAATTATCAGCATAAATATGGTACATACATAAA [CACACA_negctrl_site323] | 10.9 ± 0.57
52 | TTTGTTTTAAATATTATACACACGTAAAAGTAGAAT [CACACA_site214] | 10.5 ± 0.45
53 | GGAAACCTTTTTTTTACACACAATATATTAATACTT [CACACA_site1403] | 10.04 ± 0.049
54 | TACACCCTATTTTTATGTACTTATTTGATTTACACA [XGTACX_site8172] | 11.4 ± 0.84
55 | ATATAAATACGGTGTGCACACACATAATATATATAT [CACACA_site2271] | 10.7 ± 0.38
56 | CAAGAAAATGGACACACACACATATATATATATATA [CACACA_site6010] | 10.9 ± 0.6
57 | CAAATTTAAAAAAAATCACACACAGAAAAAAAAAAA [CACACA_site8728] | 10.01 ± 0.028
58 | AAACGTATGTTATTTACACACCCTTCCACTTTTATA [CACACA_site3337] | 9.94 ± 0.057
59 | TATAAAATAAGACATGCATGTTATACATATATATTT [TGCATGCA_site156] | 9.8 ± 0.16
60 | CATTATTATTTTATAACACACACATATATATTATAT [CACACA_site8405] | 10.1 ± 0.16
61 | ATGTTTTTTATTCTTCGTACGTATGAACGATAGTGT [XGTACX_site4225] | 11.1 ± 0.74
62 | TGAAATTTCAATACATGTACATATAAAAAAAAAAAA [XGTACX_site4424] | 11.3 ± 0.93
63 | TGTATATGTGAAGCAAGGGATGCGGCAGACATAACA [CACACA_negctrl_site1339] | 10.15 ± 0.099
64 | ATGTGCAAATATTAAAGTACTAAATTTTATTATTTT [XGTACX_site7306] | 10.8 ± 0.47
65 | ATAAATACATATAAAAGTACACACACACACATATAT [XGTACX_site1744] | 11.5 ± 0.93
66 | AAAAAAAAAAAAAAATGTACATATATATATTATAAA [XGTACX_site518] | 11.1 ± 0.57

Row | Sequence | gcPBM binding intensity (ln)
67 | TTTTTTTTTTCTACAAGTACATATTTTCATTTAACA [XGTACX_site6621] | 11.1 ± 0.64
68 | AAATTAAAAAAAAATAAATAAAAAAAAAAAAAAAAT [CACACA_negctrl_site1611] | 9.67 ± 0.071
69 | TAAGCATAAATGTATACATGCGATGCATACACATAT [TGCATGCA_site749] | 9.795 ± 0.021
70 | ATGAAATTATATTGGGGTACGTCAAAAAAGGAGATA [XGTACX_site7451] | 11.4 ± 0.83
71 | CAGATAGACTTATATGCATGCATTCACCTGCCAACA [TGCATGCA_site158] | 10 ± 0.042
72 | ATATTACATAATATATGTACACACGCAAATACTTAT [XGTACX_site671] | 11.4 ± 0.79
73 | GGGTATATATTATTATGTACACATGTATAAAATAAG [XGTACX_site2633] | 11.5 ± 0.78
74 | AAAAAAAAAAAAATTACACACATACATATAATAATA [CACACA_site8680] | 9.86 ± 0.028
75 | ATATTAAGAATAAACAGTACATATAATAAATACCAT [XGTACX_site5933] | 10.9 ± 0.52
76 | ATTAAAAAAAAAGAGCGTACAAATAATTACTTCTTT [XGTACX_site8262] | 11.5 ± 0.73
77 | TATAAATTTATAAATAGTACATATATTTATATATAT [XGTACX_site6433] | 11.1 ± 0.76
78 | AAAAAAAATATACATACATGCATACATAAGTTTCTA [TGCATGCA_site998] | 9.82 ± 0.071
79 | TATATATATGGACACACACACACATATATATATATA [CACACA_site6121] | 10.9 ± 0.73
80 | TTTGTGTATATATAATGTACATTATATTTTTATTAT [XGTACX_site6506] | 10.9 ± 0.53
81 | AGTAGATATAATATATGTACATATATATATATATAT [XGTACX_site7186] | 11.2 ± 0.53
82 | AAAAAAAAAAAAAAATGTACATATATATATATATTA [XGTACX_site7330] | 11 ± 0.59
83 | ATAAAATAAGACAAAAAAAAAATATATATATATATA [TGCATGCA_negctrl_site314] | 9.87 ± 0.5
84 | CCTTGTCTTTTTTTTTTTTTTTTTTCTTCTTATTTT [GTGCAC_negctrl_site523] | 10 ± 0.014
85 | ATATATTGAAAATATAGTACATAATAAATGTTCTTT [XGTACX_site8474] | 11 ± 0.71
86 | TTTTTTTTTTTTTTTTTTTTTTTTTTTTTTTGGGGG [CACACA_negctrl_site1570] | 10.2 ± 0.12
87 | TGCATATACTCAAGCACACATATATATATATATATA [CACACA_site4733] | 10.1 ± 0.33
88 | ATATTAAACAAACACACACACATATATATATATATA [CACACA_site3383] | 10.1 ± 0.32
